Results from publication PMC4336329 (PLoS ONE, 2015).
The campaign covered roughly 310,000 compounds. About 14,000 (4.5%) showed an effect of 50% or more. Effects have a minus sign here. Some of the results follow.

target: human ether-à-go-go-related gene (hERG) potassium channel (human, UniProt Q12809); assay: primary screen, population patch clamp on CHO cells stably expressing hERG
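Further: peak tail current of the secondary pulse compared with the same well before compound.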

human ether-à-go-go-related gene (hERG) potassium channel, sequence (Q12809 whole entry, looked up): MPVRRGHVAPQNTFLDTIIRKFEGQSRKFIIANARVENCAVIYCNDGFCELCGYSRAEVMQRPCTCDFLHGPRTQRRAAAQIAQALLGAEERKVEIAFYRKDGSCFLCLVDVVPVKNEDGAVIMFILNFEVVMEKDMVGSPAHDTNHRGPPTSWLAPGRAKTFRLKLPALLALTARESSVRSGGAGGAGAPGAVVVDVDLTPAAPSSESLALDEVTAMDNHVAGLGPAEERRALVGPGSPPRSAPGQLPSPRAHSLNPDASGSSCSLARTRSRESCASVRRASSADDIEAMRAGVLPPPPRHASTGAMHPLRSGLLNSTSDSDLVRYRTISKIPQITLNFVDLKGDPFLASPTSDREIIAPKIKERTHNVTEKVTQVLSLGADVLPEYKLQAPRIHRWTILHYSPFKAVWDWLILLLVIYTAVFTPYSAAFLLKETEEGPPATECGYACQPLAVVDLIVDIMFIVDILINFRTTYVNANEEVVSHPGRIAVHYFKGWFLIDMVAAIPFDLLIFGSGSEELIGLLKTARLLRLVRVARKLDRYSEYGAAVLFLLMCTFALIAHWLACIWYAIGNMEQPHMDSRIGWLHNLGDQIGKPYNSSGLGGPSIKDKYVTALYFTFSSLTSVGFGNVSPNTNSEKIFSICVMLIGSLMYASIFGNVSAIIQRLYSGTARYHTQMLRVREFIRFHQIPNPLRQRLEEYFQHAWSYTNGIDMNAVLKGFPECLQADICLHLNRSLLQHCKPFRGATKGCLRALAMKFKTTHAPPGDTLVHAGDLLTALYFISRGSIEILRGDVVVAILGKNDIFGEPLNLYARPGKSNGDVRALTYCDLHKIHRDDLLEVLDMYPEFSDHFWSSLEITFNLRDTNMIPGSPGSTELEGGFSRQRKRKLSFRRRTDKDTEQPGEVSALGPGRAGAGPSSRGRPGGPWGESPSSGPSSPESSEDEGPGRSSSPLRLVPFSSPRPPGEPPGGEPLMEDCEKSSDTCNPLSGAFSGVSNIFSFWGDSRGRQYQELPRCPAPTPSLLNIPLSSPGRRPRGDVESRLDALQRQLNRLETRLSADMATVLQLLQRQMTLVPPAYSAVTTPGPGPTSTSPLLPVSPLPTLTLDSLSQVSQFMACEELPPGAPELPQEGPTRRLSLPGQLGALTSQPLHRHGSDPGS

Compound | hERG current change (%, negative = inhibition) at 10uM
N#Cc1ccccc1Sc1ccccc1C(=O)N1CCOCC1 | 3.34%
CC(=O)N1CCc2cc(Br)cc(S(=O)(=O)CCC(=O)Nc3c(C)n(C)n(-c4ccccc4)c3=O)c21 | 26.3%
CCOc1ccc(C(=O)NNC2CC(=O)N(CCc3ccccc3)C2=O)cc1OC (stereo not shown) | 4.18%
CN(c1ccccc1)S(=O)(=O)c1cc(C(=O)OCC(N)=O)ccc1Cl | -4.09%
NC(=O)c1ccccc1OCCOc1ccc(Br)cc1 | 5.78%
Nc1nc(NC(=O)/C=C/c2ccc(F)cc2)nn1-c1ccccc1 | -53.4%
COc1cc2c(cc1OC)C(c1cc(OC)c(OC)c(OC)c1)NCC2 (stereo not shown) | 25%
COc1ccc(C(=O)NCCS(=O)(=O)N2CCCCCC2)cc1 | 6.58%
Nc1ccc(Nc2ccccc2)c(S(=O)(=O)O)c1 | 0.697%
C=CCn1c(SCC(=O)c2ccccc2)nnc1-c1cc2ccccc2o1 | -18.5%
COc1ccc(CNC(=O)CCc2c[nH]c3ccccc23)cc1 | 17.1%
COc1ccccc1C/C(N)=N/OC(=O)COc1ccccc1C | -1.77%
Cc1cccc(-n2c(SCC(=O)N3CCC(C(=O)O)CC3)nc3ccccc3c2=O)c1C | 0.423%
CCc1ccc(-n2c(=S)sc3c(=O)n(-c4ccccc4)c(SCC(=O)O)nc32)cc1 | 23%
CC(=O)N(C(C)=O)c1c(N2CCCC2)c2ccccc2oc1=O | 5.13%
O=C(C/C=N/OCc1c(Cl)cccc1Cl)c1cnc(-c2ccccc2)s1 | 20.9%
O=c1[nH]c(C(F)(F)F)nc2ccccc12 | 12.8%
CCOC(=O)c1c(NC(=O)C2CC2)sc(C)c1CC | 0.411%
CCCCn1nnc(NC(=O)CC23CC4CC(CC(C4)C2)C3)n1 | -11.2%
CN(C)CCCN(C(=O)c1ccc2c(c1)CCCC2)c1nc2c(F)cccc2s1.Cl | -70%
CCc1noc(C)c1C(=O)N(C)CC(=O)Nc1cccc(OC)c1 | 12.7%
CCC(=O)c1cc(F)c(N2CCN(S(=O)(=O)c3ccccc3)CC2)cc1C | 7.67%

Compound | hERG current change (%, negative = inhibition) at 10uM
O=C(O)C1CC(=O)N(CCc2c[nH]c3ccccc23)C1 (stereo not shown) | 16.2%
O=C(CC1N=C(Cc2ccccc2)NNC1=O)N/N=C/c1ccc([N+](=O)[O-])cc1 (stereo not shown) | -5.85%
COC(=O)CSc1ncccc1-c1nc2ccccc2[nH]1 | 5.54%
CN(CC(=O)NC(=O)NCc1ccco1)CC(=O)Nc1ccccc1Cl | -4.66%
COc1ccc(CN(CC(=O)NCc2ccc(F)cc2)C(=O)c2csnn2)cc1 | -58.5%
COc1cc2c(cc1OC)CN(C(=O)c1cc(S(=O)(=O)N3CCOCC3)ccc1C)CC2 | -0.162%
CCN(Cc1ccccc1)c1ccc(/C=N/N2CCOCC2)cc1 | -31.5%
Cc1ccc(/C=N/c2sc(Cc3ccccc3)c(C)c2C(N)=O)o1 | -4.3%
COc1ccc(OC)c(C(=O)NC(CC(N)=O)c2ccc(NCCOc3ccccc3)c([N+](=O)[O-])c2)c1 (stereo not shown) | -1.02%
COc1ccc(-c2csc(-c3ccc(C(=O)O)cc3)n2)cc1 | 18.6%
COc1cc(CN2CCN(CCc3ccccc3)C(CCO)C2)cc(OC)c1 (stereo not shown) | -63.5%
Cc1csc(NC(=O)c2c(-c3c(F)cccc3Cl)noc2C)n1 | -10.9%
O=C(c1cnn2c(-c3ccccc3)cc(-c3ccccc3)nc12)N1CCN(Cc2ccccc2)CC1 | -3.82%
CNc1c(NS(=O)(=O)c2ccc(OC)cc2)c(=O)oc2ccccc12 | 11%
CCO[C@H]1OC(C(=O)NCc2ccccc2)=C[C@@H](C2CC2)[C@@H]1CCCO | 11.2%
Cc1ccc(OCC(=O)Nc2ccccc2Sc2ccc(Cl)cc2)c([N+](=O)[O-])n1 | -4.66%
O=C(N/N=C/c1ccc(OCC(=O)N2CCOCC2)cc1)c1ccccc1Cl | 9.74%
CCOCCCNC(=O)C(c1ccc(OC)cc1)N(Cc1cccs1)C(=O)CNC(C)=O (stereo not shown) | 13.6%
Nc1cc(C(F)(F)F)ccc1NCCc1ccccn1 | 2.35%
COc1cccc(CNC(=O)Cn2cc([N+](=O)[O-])cn2)c1 | 11.9%
CCSc1nnc(NC(=O)c2cc(C)on2)s1 | 9.14%
